Laboratory results: patent US20240158446A1, “CYCLIC COMPOUND HAVING SELECTIVE INHIBITORY ACTION ON KRAS OVER HRAS AND NRAS” (CHUGAI SEIYAKU KABUSHIKI KAISHA, priority 2021, published 2024)
For some assays here: Not every detail of the peptide structures is certain; ends, links or a residue may be inferred. Some compounds share one wording; it may come from a single statement. For some assays here: For at least one compound, name, drawing or mass did not settle the structure.

What was measured:
[1] = molecular target: GDP-bound KRAS wild-type protein (Homo sapiens, UniProt P01116); experiment: Binding to KRAS by surface plasmon resonance (SPR), Single Cycle Kinetics
[2] = molecular target: GDP-bound NRAS wild-type protein (Homo sapiens, UniProt P01111); experiment: Binding to NRAS by surface plasmon resonance (SPR), Single Cycle Kinetics; settings: for NRAS/KRAS (ratio of KD value for NRAS to KD value for KRAS): SPR, GDP-bound NRAS wild-type protein vs GDP-bound KRAS wild-type protein
[3] = molecular target: GDP-bound HRAS wild-type protein (Homo sapiens, UniProt P01112); experiment: Binding to HRAS by surface plasmon resonance (SPR), Single Cycle Kinetics; settings: for HRAS/KRAS (ratio of KD value for HRAS to KD value for KRAS): SPR, GDP-bound HRAS wild-type protein vs GDP-bound KRAS wild-type protein
Chain of GDP-bound HRAS wild-type protein (P01112 whole entry): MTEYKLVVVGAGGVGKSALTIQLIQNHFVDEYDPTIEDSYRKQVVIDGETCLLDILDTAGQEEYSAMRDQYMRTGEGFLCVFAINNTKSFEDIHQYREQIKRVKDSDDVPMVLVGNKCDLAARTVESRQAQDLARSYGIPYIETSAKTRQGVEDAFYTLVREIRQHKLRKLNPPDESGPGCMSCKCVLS

Chain of GDP-bound NRAS wild-type protein (P01111 whole entry): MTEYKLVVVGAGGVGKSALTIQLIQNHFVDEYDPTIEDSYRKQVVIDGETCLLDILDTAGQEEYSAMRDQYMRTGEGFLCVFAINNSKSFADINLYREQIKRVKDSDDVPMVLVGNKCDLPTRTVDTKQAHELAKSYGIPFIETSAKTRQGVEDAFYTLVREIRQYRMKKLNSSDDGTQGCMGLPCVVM
Chain of GDP-bound KRAS wild-type protein (P01116 whole entry): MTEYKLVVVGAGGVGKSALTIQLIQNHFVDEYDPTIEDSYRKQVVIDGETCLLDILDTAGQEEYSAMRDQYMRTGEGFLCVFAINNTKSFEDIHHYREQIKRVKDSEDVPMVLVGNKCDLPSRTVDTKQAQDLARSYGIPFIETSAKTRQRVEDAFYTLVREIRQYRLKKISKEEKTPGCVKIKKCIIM

Row | SMILES | NRAS/KRAS (ratio of KD value for NRAS to KD value for KRAS) [2] | HRAS/KRAS (ratio of KD value for HRAS to KD value for KRAS) [3] | also measured
1 | CCO[C@@H]1C[C@H]2C(=O)NC3(CCC3)C(=O)N(C)[C@@H](C3CCCC3)C(=O)N(C)[C@H](C(=O)N3CCCC3)CC(=O)N(C)[C@@H](CC)C(=O)N[C@@H]([C@@H](C)CC)C(=O)N(C)CC(=O)N(C)[C@H]3C/C=C\CCN(C3=O)[C@@H](CC3CCC(F)(F)CC3)C(=O)N(C)CC(=O)N[C@@H](CCc3cc(F)c(C(F)(F)F)c(F)c3)C(=O)N2C1 [PP1442] |  |  | Kd ([1]; SPR, Single Cycle Kinetics, 1:1 binding model): 0.13 nM
2 | CCC[C@H]1C(=O)N[C@@H]([C@@H](C)CC)C(=O)N(C)CC(=O)N(C)[C@H]2C/C=C\CCN(C2=O)[C@@H](Cc2ccc(C(F)(F)F)cc2)C(=O)N(C)CC(=O)N[C@@H](CCc2cc(F)c(C(F)(F)F)c(F)c2)C(=O)N2C[C@H](OCC)C[C@H]2C(=O)NC2(CC(C)(C)C2)C(=O)N(C)[C@@H](CC(C)(C)C)C(=O)N(C)C(C(=O)N(C)C)CC(=O)N1C (some centres unmarked) [PP2730] |  |  | Kd ([1]; SPR Single Cycle Kinetics, 1:1 binding model): 0.065 nM
3 | CCO[C@@H]1C[C@H]2C(=O)NC3(CCC3)C(=O)N(C)[C@@H](C3CCCC3)C(=O)N(C)[C@H](C(=O)N3CCOCC3)CC(=O)N(C)[C@@H](Cc3ccccc3)C(=O)N[C@@H]([C@@H](C)CC)C(=O)N(C)CC(=O)N(C)[C@H]3CCCCCN(C3=O)[C@@H](Cc3ccc(F)cc3)C(=O)N(C)CC(=O)N[C@@H](CCc3cc(F)c(C(F)(F)F)c(F)c3)C(=O)N2C1 [PP1181] |  |  | Kd ([1]; SPR, Single Cycle Kinetics): 0.19 nM
4 | CCO[C@@H]1C[C@H]2C(=O)NC3(CC(C)(C)C3)C(=O)N(C)[C@@H](C(CC)CC)C(=O)N(C)[C@H](C(=O)N3CCCCC3)CC(=O)N(C)[C@H]3CCC/C=C/c4ccc(cc4)C[C@@H](C(=O)N(C)CC(=O)N[C@@H](CCc4cc(F)c(C(F)(F)F)c(F)c4)C(=O)N2C1)N1CC/C=C\C[C@@H](C1=O)N(C)C(=O)CN(C)C(=O)[C@H]([C@@H](C)CC)NC3=O [PP2952] |  |  | NRAS/KRAS (ratio of KD value with respect to GDP-bound NRAS wild-type protein to KD value with respect to KRAS) ([2]; SPR KD ratio NRAS/KRAS, class symbols): AA (a compound having 20 or more is denoted as AA); HRAS/KRAS (ratio of KD value with respect to GDP-bound HRAS wild-type protein to KD value with respect to KRAS) ([3]; SPR KD ratio HRAS/KRAS, class symbols): A (a compound having 10 or more and less than 20 is denoted as A)
5 | CCO[C@@H]1C[C@H]2C(=O)NC3(CCC3)C(=O)N(C)[C@@H](C(CC)CC)C(=O)N(C)[C@H](C(=O)N3CCCCC3)CC(=O)N(C)[C@H]3CCCCC/C=C/c4ccc(cc4)C[C@@H](C(=O)N(C)CC(=O)N[C@@H](CCc4ccc(Cl)c(Cl)c4)C(=O)N2C1)N1CC/C=C\C[C@@H](C1=O)N(C)C(=O)CN(C)C(=O)[C@H]([C@@H](C)CC)NC3=O [PP3051] | AA (a compound having 20 or more is denoted as AA) | A (a compound having 10 or more and less than 20 is denoted as A) | 
6 | CCO[C@@H]1C[C@H]2C(=O)NC3(CCC3)C(=O)N(C)[C@@H](C3CCCC3)C(=O)N(C)[C@H](C(=O)N3CCCC3)CC(=O)N(C)[C@H]3CCCCC/C=C/c4ccc(cc4)C[C@@H](C(=O)N(C)CC(=O)N[C@@H](CCc4ccc(Cl)c(Cl)c4)C(=O)N2C1)N1CC/C=C\C[C@@H](C1=O)N(C)C(=O)CN(C)C(=O)[C@H]([C@@H](C)CC)NC3=O [PP3049] | AA (a compound having 20 or more is denoted as AA) | A (a compound having 10 or more and less than 20 is denoted as A) | 
7 | CCO[C@@H]1C[C@H]2C(=O)NC3(CC(C)(C)C3)C(=O)N(C)[C@@H](C(CC)CC)C(=O)N(C)[C@H](C(=O)N(C)C)CC(=O)N(C)[C@H]3CCCC/C=C/c4ccc(cc4)C[C@@H](C(=O)N(C)CC(=O)N[C@@H](CCc4cc(F)c(C(F)(F)F)c(F)c4)C(=O)N2C1)N1CC/C=C\C[C@@H](C1=O)N(C)C(=O)CN(C)C(=O)[C@H]([C@@H](C)CC)NC3=O [PP3044] | AA (a compound having 20 or more is denoted as AA) | A (a compound having 10 or more and less than 20 is denoted as A) | 
